Assay results as given in publication PMC5770238 (Science (New York, N.Y.), 2017).

Molecular target: the molecule itself
Assay: cryo-EM structure

| Protein | stoichiometry N | binding result |
| --- | --- | --- |
| Hsp104 N728A (sensor 1 ATPase mutant in NBD2) (enzyme) not shown | 6 |  |
| Hsp104 T317A (sensor 1 ATPase mutant in NBD1) (enzyme) not shown |  | binds |
